Data on three substances can be found in PMC8771830.

Amino acid sequences for entries named in this document (tags omitted). A change or cut given only in a name is not applied to a line headed by its entry. Residues count along the entry.
UniProt Q08369: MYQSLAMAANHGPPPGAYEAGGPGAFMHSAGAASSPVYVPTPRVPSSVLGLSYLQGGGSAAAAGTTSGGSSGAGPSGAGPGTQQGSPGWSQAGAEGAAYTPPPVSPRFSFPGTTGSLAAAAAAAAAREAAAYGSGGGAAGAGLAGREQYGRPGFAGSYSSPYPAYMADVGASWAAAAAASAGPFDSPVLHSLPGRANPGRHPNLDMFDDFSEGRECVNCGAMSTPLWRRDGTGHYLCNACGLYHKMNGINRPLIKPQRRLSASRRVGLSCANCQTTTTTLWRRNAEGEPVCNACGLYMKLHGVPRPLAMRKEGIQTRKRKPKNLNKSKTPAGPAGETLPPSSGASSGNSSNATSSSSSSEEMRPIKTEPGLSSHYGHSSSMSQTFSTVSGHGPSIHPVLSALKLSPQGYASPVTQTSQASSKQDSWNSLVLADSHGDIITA
GST-GATA4 residues 180-326: residues 180-326 of Q08369
GST-GATA4 residues 180-255: residues 180-255 of Q08369
GST-GATA4 residues 256-326: residues 256-326 of Q08369
UniProt Q09472: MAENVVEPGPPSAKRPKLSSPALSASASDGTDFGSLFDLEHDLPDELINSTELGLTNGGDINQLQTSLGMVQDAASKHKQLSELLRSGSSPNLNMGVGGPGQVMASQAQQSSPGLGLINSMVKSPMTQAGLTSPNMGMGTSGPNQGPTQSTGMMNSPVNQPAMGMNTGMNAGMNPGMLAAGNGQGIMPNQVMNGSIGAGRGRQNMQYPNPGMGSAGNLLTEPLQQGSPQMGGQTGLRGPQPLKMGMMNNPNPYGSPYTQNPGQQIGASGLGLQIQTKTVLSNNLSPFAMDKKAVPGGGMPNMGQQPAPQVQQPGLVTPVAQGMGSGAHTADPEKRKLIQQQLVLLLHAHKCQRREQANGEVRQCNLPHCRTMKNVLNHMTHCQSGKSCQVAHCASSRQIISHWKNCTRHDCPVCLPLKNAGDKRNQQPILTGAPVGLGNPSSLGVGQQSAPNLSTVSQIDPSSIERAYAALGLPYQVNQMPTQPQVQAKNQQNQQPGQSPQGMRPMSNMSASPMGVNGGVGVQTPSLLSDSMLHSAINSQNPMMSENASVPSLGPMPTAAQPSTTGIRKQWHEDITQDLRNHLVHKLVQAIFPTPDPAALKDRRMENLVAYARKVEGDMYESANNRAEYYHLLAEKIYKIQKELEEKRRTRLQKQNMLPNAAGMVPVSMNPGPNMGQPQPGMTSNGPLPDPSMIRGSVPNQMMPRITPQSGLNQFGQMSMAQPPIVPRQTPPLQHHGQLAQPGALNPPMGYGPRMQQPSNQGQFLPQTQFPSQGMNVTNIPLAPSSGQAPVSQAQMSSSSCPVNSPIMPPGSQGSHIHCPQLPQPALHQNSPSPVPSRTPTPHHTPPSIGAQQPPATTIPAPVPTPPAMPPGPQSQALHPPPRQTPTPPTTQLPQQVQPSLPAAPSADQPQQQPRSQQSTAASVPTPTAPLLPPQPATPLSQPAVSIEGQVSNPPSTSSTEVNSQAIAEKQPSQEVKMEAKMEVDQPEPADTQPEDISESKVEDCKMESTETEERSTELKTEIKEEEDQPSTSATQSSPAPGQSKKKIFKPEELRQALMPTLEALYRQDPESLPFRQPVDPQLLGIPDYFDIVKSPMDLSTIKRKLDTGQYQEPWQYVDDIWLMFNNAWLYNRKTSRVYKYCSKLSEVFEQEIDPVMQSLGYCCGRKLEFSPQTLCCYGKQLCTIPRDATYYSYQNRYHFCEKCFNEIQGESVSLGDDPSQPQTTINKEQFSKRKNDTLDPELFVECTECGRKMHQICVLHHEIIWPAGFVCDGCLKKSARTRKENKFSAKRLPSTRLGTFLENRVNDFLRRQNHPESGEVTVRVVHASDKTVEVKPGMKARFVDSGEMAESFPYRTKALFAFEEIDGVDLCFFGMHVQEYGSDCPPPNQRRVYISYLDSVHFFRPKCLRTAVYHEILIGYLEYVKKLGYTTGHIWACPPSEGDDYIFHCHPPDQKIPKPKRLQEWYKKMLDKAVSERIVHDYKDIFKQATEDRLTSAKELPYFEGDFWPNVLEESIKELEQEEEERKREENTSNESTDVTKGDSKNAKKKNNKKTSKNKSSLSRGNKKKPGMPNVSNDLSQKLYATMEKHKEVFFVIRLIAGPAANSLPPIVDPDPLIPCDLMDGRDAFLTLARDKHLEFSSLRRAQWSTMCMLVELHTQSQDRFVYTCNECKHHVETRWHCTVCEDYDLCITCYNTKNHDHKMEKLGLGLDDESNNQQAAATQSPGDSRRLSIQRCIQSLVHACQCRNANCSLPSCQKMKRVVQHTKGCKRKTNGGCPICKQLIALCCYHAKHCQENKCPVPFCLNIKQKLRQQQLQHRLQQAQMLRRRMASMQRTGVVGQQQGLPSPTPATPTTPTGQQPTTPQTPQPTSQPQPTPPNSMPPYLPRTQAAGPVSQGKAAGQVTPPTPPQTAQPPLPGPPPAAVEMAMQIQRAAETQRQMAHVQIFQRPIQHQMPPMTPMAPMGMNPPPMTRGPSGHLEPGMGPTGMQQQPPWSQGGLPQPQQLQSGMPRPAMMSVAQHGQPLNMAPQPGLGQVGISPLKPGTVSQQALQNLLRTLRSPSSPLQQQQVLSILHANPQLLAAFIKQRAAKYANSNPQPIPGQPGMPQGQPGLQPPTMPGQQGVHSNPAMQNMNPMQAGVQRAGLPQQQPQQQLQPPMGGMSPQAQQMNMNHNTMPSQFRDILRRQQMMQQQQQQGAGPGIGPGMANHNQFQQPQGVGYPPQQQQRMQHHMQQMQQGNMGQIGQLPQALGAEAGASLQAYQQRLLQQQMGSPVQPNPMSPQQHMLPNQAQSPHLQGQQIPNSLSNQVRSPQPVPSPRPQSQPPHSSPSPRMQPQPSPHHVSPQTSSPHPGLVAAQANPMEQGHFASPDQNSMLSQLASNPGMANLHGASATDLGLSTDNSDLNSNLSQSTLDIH

No constants are given. Whether binding was seen depends on the method and setting. In cells and extracts the contact can be indirect. Some entries that bind do so weakly or less than the wild type. For some of these results: Where a sequence is shown, tags or fusion partners need not be part of it.

The target in experiment [1] is GATA4 expressed in HEK293T cells (FLAG-GATA4, HA-GATA4, 3xMyc-GATA4) (UniProt Q08369). As to the kind of experiment: co-IP; nuclear extracts of HEK293T cells expressing FLAG-GATA4 (or FLAG-GATA4 m456A) and HA-GATA4, without or with co-expressed HA-p300 (wild type or AS); anti-FLAG or anti-HA immunoprecipitation, Western blotting with anti-HA and anti-FLAG.
For experiment [2] the target is unchanged. As to the kind of experiment: co-IP; nuclear extracts of HEK293T cells expressing FLAG-GATA4, HA-p300, with or without GMP; anti-FLAG immunoprecipitation; blotted with anti-FLAG, anti-acetyl lysine, anti-p300, anti-HA.
For experiment [3], the target named is GST-GATA4 residues 180-326 (UniProt Q08369). As to the kind of experiment: pull-down; GST fusion proteins immobilized on Glutathione-Sepharose 4B, mixed with in vitro translated 35S-labelled GATA4, 2 h at 4°C; washed five times with 20 mM Tris pH 8.0, 2.5 mM MgCl2, 100 mM KCl, 5% glycerol, 0.1% Tween20; BAS2000 bio-imaging analyzer; only the target purified.
Experiment [4] addresses GST-GATA4 residues 256-326 (UniProt Q08369). Described as above.
The target in experiment [5] is T1, GST-GATA4 residues 308-326 (UniProt Q08369).
T1 sequence: AMRKEGIQTRKRKPKNLNK
Described as above.

In a further experiment the target is GST-full length GATA4 (UniProt Q08369). The experiment is described as above.
Experiment [6] addresses GST-GATA4 residues 180-255 (UniProt Q08369). The description is as above.

In the case of “GATA4 expressed in HEK293T cells (FLAG-GATA4, HA-GATA4, 3xMyc-GATA4) (from UniProt Q08369 1-441)”, the binding result in experiment [1] is reported as “binds”.

Take HA-p300 (from UniProt Q09472 1-2414): the binding entry in experiment [2] is reported as “binds”.

As for “^35S-labelled GATA4 protein (from UniProt Q08369 1-441)”, the binding result is reported as “binds” in experiment [3]; “binds” in experiment [4]; “binds” in experiment [5]; “binds” in the experiment with GST-full length GATA4; “no binding” in experiment [6].
